The list shows a part of the results.
How the values were obtained:
Experiment in all cases: glycan array binding signal (z-score within array); higher = stronger binding
Conditions in all cases: glycan notation: IUPAC condensed, linker removed; mutation: E41A
GalNAc(b1-4)GlcNAc = target: GalNAc(b1-4)GlcNAc
Procedure, shortened: (§1)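 From the Consortium for Functional Glycomics database, 3228 arrays were curated, keeping only those whose protein sequence was available. Binding is given as a within-array Z-score averaged across arrays sharing a protein sequence and across linkers. Negative Z-scores can be read as non-binding.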

[1] = target: GalNAc(b1-4)GlcNAc(b1-2)Man
Procedure, shortened: as §1

[2] = target: GalNAc(b1-4)GlcNAc(b1-2)Man(a1-3)[GalNAc(b1-4)GlcNAc(b1-2)Man(a1-6)]Man(b1-4)GlcNAc(b1-4)GlcNAc
Procedure, shortened: as §1

[3] = target: GalNAc(b1-4)GlcNAc(b1-3)GalNAc(b1-4)GlcNAc
Procedure, shortened: as §1

GalNAc(b1-4)GlcNAc6S = target: GalNAc(b1-4)GlcNAc6S
Procedure, shortened: as §1

GalNAc(b1-6)GalNAc = target: GalNAc(b1-6)GalNAc
Procedure, shortened: as §1

GalNAc3S(b1-4)GlcNAc = target: GalNAc3S(b1-4)GlcNAc
Procedure, shortened: as §1

GalNAc3S(b1-4)GlcNAc3S = target: GalNAc3S(b1-4)GlcNAc3S
Procedure, shortened: as §1

[4] = target: GalNAc3S(b1-4)[Fuc(a1-3)]GlcNAc
Procedure, shortened: as §1

GalNAc4S6S(b1-4)GlcNAc = target: GalNAc4S6S(b1-4)GlcNAc
Procedure, shortened: as §1

GalNAc6S(b1-4)GlcNAc = target: GalNAc6S(b1-4)GlcNAc
Procedure, shortened: as §1

Glc(a1-4)Glc = target: Glc(a1-4)Glc
Procedure, shortened: as §1

[5] = target: Glc(a1-4)Glc(a1-4)Glc(a1-4)Glc
Procedure, shortened: as §1

Glc(a1-6)Glc(a1-6)Glc = target: Glc(a1-6)Glc(a1-6)Glc
Procedure, shortened: as §1

[6] = target: Glc(a1-6)Glc(a1-6)Glc(a1-6)Glc
Procedure, shortened: as §1

Glc(b1-4)Glc = target: Glc(b1-4)Glc
Procedure, shortened: as §1

Glc(b1-6)Glc = target: Glc(b1-6)Glc
Procedure, shortened: as §1

GlcA(b1-3)Gal = target: GlcA(b1-3)Gal
Procedure, shortened: as §1

GlcA(b1-3)GlcNAc = target: GlcA(b1-3)GlcNAc
Procedure, shortened: as §1

GlcA(b1-6)Gal = target: GlcA(b1-6)Gal
Procedure, shortened: as §1

[7] = target: GlcA3S(b1-3)Gal(b1-4)GlcNAc(b1-2)Man
Procedure, shortened: as §1

[8] = target: GlcA3S(b1-3)Gal(b1-4)GlcNAc(b1-3)Gal(b1-4)Glc
Procedure, shortened: as §1

[9] = target: GlcNAc(a1-3)Gal(b1-4)GlcNAc
Procedure, shortened: as §1

[10] = target: GlcNAc(a1-4)Gal(b1-3)GlcNAc
Procedure, shortened: as §1

[11] = target: GlcNAc(a1-4)Gal(b1-4)GalNAc
Procedure, shortened: as §1

[12] = target: GlcNAc(a1-4)Gal(b1-4)GlcNAc
Procedure, shortened: as §1

[13] = target: GlcNAc(a1-4)Gal(b1-4)GlcNAc(b1-3)Gal(b1-4)Glc
Procedure, shortened: as §1

[14] = target: GlcNAc(a1-4)Gal(b1-4)GlcNAc(b1-3)Gal(b1-4)GlcNAc
Procedure, shortened: as §1

[15] = target: GlcNAc(a1-4)Gal(b1-4)GlcNAc(b1-3)Gal(b1-4)GlcNAc(b1-3)Gal(b1-4)GlcNAc
Procedure, shortened: as §1

[16] = target: GlcNAc(a1-4)Gal(b1-4)GlcNAc(b1-3)Gal(b1-4)[Fuc(a1-3)]GlcNAc(b1-3)Gal(b1-4)[Fuc(a1-3)]GlcNAc
Procedure, shortened: as §1

[17] = target: GlcNAc(a1-6)Gal(b1-4)GlcNAc
Procedure, shortened: as §1

[18] = target: GlcNAc(b1-2)Gal(b1-3)GalNAc
Procedure, shortened: as §1

[19] = target: GlcNAc(b1-2)Man(a1-3)[GlcNAc(b1-2)Man(a1-6)]Man(b1-4)GlcNAc(b1-4)GlcNAc
Procedure, shortened: as §1

[20] = target: GlcNAc(b1-2)Man(a1-3)[GlcNAc(b1-2)Man(a1-6)]Man(b1-4)GlcNAc(b1-4)[Fuc(a1-6)]GlcNAc
Procedure, shortened: as §1

[21] = target: GlcNAc(b1-2)Man(a1-3)[GlcNAc(b1-4)][GlcNAc(b1-2)Man(a1-6)]Man(b1-4)GlcNAc(b1-4)GlcNAc
Procedure, shortened: as §1

[22] = target: GlcNAc(b1-2)Man(a1-3)[GlcNAc(b1-4)][GlcNAc(b1-2)Man(a1-6)]Man(b1-4)GlcNAc(b1-4)[Fuc(a1-6)]GlcNAc
Procedure, shortened: as §1

[23] = target: GlcNAc(b1-2)[GlcNAc(b1-4)]Man(a1-3)[GlcNAc(b1-2)Man(a1-6)]Man(b1-4)GlcNAc(b1-4)GlcNAc
Procedure, shortened: as §1

[24] = target: GlcNAc(b1-2)[GlcNAc(b1-4)]Man(a1-3)[GlcNAc(b1-4)][GlcNAc(b1-2)Man(a1-6)]Man(b1-4)GlcNAc(b1-4)GlcNAc
Procedure, shortened: as §1

[25] = target: GlcNAc(b1-2)[GlcNAc(b1-4)]Man(a1-3)[GlcNAc(b1-4)][GlcNAc(b1-2)[GlcNAc(b1-6)]Man(a1-6)]Man(b1-4)GlcNAc(b1-4)GlcNAc
Procedure, shortened: as §1

[26] = target: GlcNAc(b1-2)[GlcNAc(b1-4)]Man(a1-3)[GlcNAc(b1-4)][GlcNAc(b1-2)[GlcNAc(b1-6)]Man(a1-6)]Man(b1-4)GlcNAc(b1-4)[Fuc(a1-6)]GlcNAc
Procedure, shortened: as §1

[27] = target: GlcNAc(b1-2)[GlcNAc(b1-6)]Man(a1-6)[GlcNAc(b1-2)Man(a1-3)]Man(b1-4)GlcNAc(b1-4)GlcNAc
Procedure, shortened: as §1

[28] = target: GlcNAc(b1-2)[GlcNAc(b1-6)]Man(a1-6)[GlcNAc(b1-2)Man(a1-3)]Man(b1-4)GlcNAc(b1-4)[Fuc(a1-6)]GlcNAc
Procedure, shortened: as §1

[29] = target: GlcNAc(b1-2)[GlcNAc(b1-6)]Man(a1-6)[GlcNAc(b1-4)][GlcNAc(b1-2)Man(a1-3)]Man(b1-4)GlcNAc(b1-4)GlcNAc
Procedure, shortened: as §1

GlcNAc(b1-3)Fuc = target: GlcNAc(b1-3)Fuc
Procedure, shortened: as §1

GlcNAc(b1-3)Gal = target: GlcNAc(b1-3)Gal
Procedure, shortened: as §1

B1: CVN-E41G (protein)
chain: MHHHHHHENLYFQSGNFSQACYNSAIQGSVLTSTCIRTNGGYNTSSIDLNSVIANVDGSLKWQGSNFIETCRNTQLAGSSELAAECKTRAQQFVSTKINLDDHIAAIDGTLKYE
- glycan array binding signal (z-score) (GalNAc(b1-4)GlcNAc): -0.163
- glycan array binding signal (z-score) [1]: -0.204
- glycan array binding signal (z-score) [2]: -0.204
- glycan array binding signal (z-score) [3]: -0.186
- glycan array binding signal (z-score) (GalNAc(b1-4)GlcNAc6S): -0.069
- glycan array binding signal (z-score) (GalNAc(b1-6)GalNAc): -0.215
- glycan array binding signal (z-score) (GalNAc3S(b1-4)GlcNAc): -0.228
- glycan array binding signal (z-score) (GalNAc3S(b1-4)GlcNAc3S): -0.242
- glycan array binding signal (z-score) [4]: -0.189
- glycan array binding signal (z-score) (GalNAc4S6S(b1-4)GlcNAc): -0.245
- glycan array binding signal (z-score) (GalNAc6S(b1-4)GlcNAc): -0.231
- glycan array binding signal (z-score) (Glc(a1-4)Glc): -0.186
- glycan array binding signal (z-score) [5]: -0.25
- glycan array binding signal (z-score) (Glc(a1-6)Glc(a1-6)Glc): 0.143
- glycan array binding signal (z-score) [6]: -0.116
- glycan array binding signal (z-score) (Glc(b1-4)Glc): -0.16
- glycan array binding signal (z-score) (Glc(b1-6)Glc): -0.095
- glycan array binding signal (z-score) (GlcA(b1-3)Gal): -0.164
- glycan array binding signal (z-score) (GlcA(b1-3)GlcNAc): 0.793
- glycan array binding signal (z-score) (GlcA(b1-6)Gal): 0.013
- glycan array binding signal (z-score) [7]: -0.205
- glycan array binding signal (z-score) [8]: -0.191
- glycan array binding signal (z-score) [9]: -0.218
- glycan array binding signal (z-score) [10]: -0.204
- glycan array binding signal (z-score) [11]: -0.215
- glycan array binding signal (z-score) [12]: -0.214
- glycan array binding signal (z-score) [13]: -0.219
- glycan array binding signal (z-score) [14]: -0.213
- glycan array binding signal (z-score) [15]: -0.199
- glycan array binding signal (z-score) [16]: -0.122
- glycan array binding signal (z-score) [17]: -0.208
- glycan array binding signal (z-score) [18]: -0.267
- glycan array binding signal (z-score) [19]: -0.23
- glycan array binding signal (z-score) [20]: -0.184
- glycan array binding signal (z-score) [21]: -0.19
- glycan array binding signal (z-score) [22]: -0.195
- glycan array binding signal (z-score) [23]: -0.177
- glycan array binding signal (z-score) [24]: -0.211
- glycan array binding signal (z-score) [25]: -0.201
- glycan array binding signal (z-score) [26]: -0.212
- glycan array binding signal (z-score) [27]: -0.181
- glycan array binding signal (z-score) [28]: -0.182
- glycan array binding signal (z-score) [29]: -0.212
- glycan array binding signal (z-score) (GlcNAc(b1-3)Fuc): -0.189
- glycan array binding signal (z-score) (GlcNAc(b1-3)Gal): -0.223

From the supplement of paper PMC8728848
